In the supplement of paper PMC11417369:
± gives the standard deviation of the averaged measurements. The list shows a part of the results.

System: PfAP2-I AP2 domain 3 (GST-tagged)
Assay: gcPBM binding intensity (ln(normalized median fluorescence intensity)); higher = stronger DNA binding
How it was run: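 After 1 h on an Agilent 4 × 180k array of primer-extended double-stranded 36-bp intergenic genomic probes and negative controls, bound GST-tagged P. falciparum DNA-binding domains were detected with Alexa488 anti-GST antibody and scanned at 488 nm. The domains had been expressed in E. coli, and binding took place in 1× PBS with 1% milk, 0.2 mg/ml BSA, 0.5% salmon testes DNA and 0.03% Triton X-100. Binding intensity is the highest Masliner-normalised natural-log median intensity across replicate spots of either probe orientation.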

Row | Sequence | gcPBM binding intensity (ln)
1 | AAAAAAAAAAGACACACACACACACGGAGATATATA [CACACA_site6216] | 7.76 ± 0.41
2 | AATTTTAATTATATCACACATAATATATACCAAAAA [CACACA_site6011] | 7.65 ± 0.68
3 | TACATATTTTTATATACACACAATAATTACTATAAA [CACACA_site6879] | 7.65 ± 0.3
4 | AAAATACATAAACGTTCACACATTGAAGATCACAAG [CACACA_site5347] | 7.66 ± 0.46
5 | TAGGTACATAAATTGGTGCAAAGTGTACATATATAT | 10.2 ± 0.11
6 | CATATTTTCAAAATTAGTACATAAAAAAAAAAATAT [XGTACX_site3101] | 8.03 ± 0.5
7 | TATAATCATATATACACACACATATATATATATATA [CACACA_site2168] | 9.27 ± 0.62
8 | TCTTCCGCTTTATGGAGTACTATGGTAGCCTTTCCT [XGTACX_site2958] | 7.63 ± 0.66
9 | GACCTACAAAAAGGCACACATATACGCATACATACA [CACACA_site2179] | 8.41 ± 0.42
10 | ATATGCATAAAAAGAGGTACACATAAAATATATATA [XGTACX_site5864] | 8.19 ± 0.64
11 | TATACACATATATAAAGTACATATATGTGTAAAAAA [XGTACX_site8582] | 7.61 ± 0.32
12 | CAGATATTTGTTCATATACACACTTTTGATAAAATA [CACACA_site1219] | 7.65 ± 0.47
13 | AATATTTTTTGTTTTACACACATATATAGATATATA [CACACA_site7662] | 8.04 ± 0.53
14 | CAAAAAATGAAACACACACACACACCCATAAATAAA [CACACA_site1231] | 8.09 ± 0.25
15 | TCATATATAAAAAGGGTGCTTTTAAAAGAATGGATT | 10.22 ± 0.028
16 | TTTTTTTTTGTATTTTCACACATTTTTTTTTTTTTT [CACACA_site5407] | 7.97 ± 0.67
17 | TTATTTAAACAAATCACACACAAATATATATACATA [CACACA_site2019] | 7.64 ± 0.4
18 | TTTTTTGGGTAAAATTATAAAATATGTATATATAAA [CACACA_negctrl_site27] | 7.62 ± 0.56
19 | AAATATACAATATTCACACAAAAAAATACATTACAA [CACACA_site5004] | 7.51 ± 0.65
20 | ATATATTTATATTGTACACACATTTATGCATATATA [CACACA_site7502] | 8.08 ± 0.45
21 | TGTTTTTATAAAATAAATAAATATATATATATATAT [CACACA_negctrl_site502] | 9.14 ± 0.51
22 | TTTCTTACAAAAGCTAGAGTTTTTTTTTTTTTTTTT [XGTACX_negctrl_site341] | 8.82 ± 0.52
23 | AGAATAAATATGCACACATGCATATATTTTTACACT [TGCATGCA_site893] | 10.83 ± 0.014

Row | Sequence | gcPBM binding intensity (ln)
24 | TTAGTCCATATTTTTGCACACCATTTTTTTTTTTTT [CACACA_site3927] | 9.22 ± 0.38
25 | ATCCTTAATATGAACACACAAATATATTGCACATAT [CACACA_site6230] | 10.4 ± 0.23
26 | TCTTTTTCATCTTTCAACAAAAAATAATATATGTGT [CACACA_negctrl_site866] | 7.73 ± 0.59
27 | TAAATTTGTGTTATTAAAAAAATGGTTTAAAAATGT [XGTACX_negctrl_site352] | 7.89 ± 0.6
28 | TAGGGTAGTTATAATTGTACTTTTCTCCAAAAAAAA [XGTACX_site7321] | 7.78 ± 0.13
29 | GAAATCTAAATAGAAACACACATATATATATATATA [CACACA_site3863] | 9.3 ± 0.29
30 | TTTTTGTTTTTTTGTTTATCGTTCGTGACTACATGA [TGCATGCA_negctrl_site124] | 7.72 ± 0.61
31 | AAAAATAAAAAATATAAAAATATAAAAATATAAAAA [XGTACX_negctrl_site51] | 7.49 ± 0.76
32 | TAGGTAAATGCAAATTGGTTTAAATCAAAATATAAA [XGTACX_negctrl_site250] | 7.62 ± 0.71
33 | TTTATTATTTTAACGTGTACAAGGTATATAATATTC [XGTACX_site5241] | 8.06 ± 0.4
34 | TGATATTATATATATACACACATGTATGTATTTATA [CACACA_site4874] | 7.38 ± 0.45
35 | GTATCAAAAGAATACACACACACATACAGATATATA [CACACA_site5975] | 7.83 ± 0.38
36 | ATAAACAAACATAAATCTGATTTTAATTTTTTTAAG [CACACA_negctrl_site313] | 7.21 ± 0.45
37 | ATATATATATTGAAAAGTACATATATATATATATTA [XGTACX_site1560] | 8.795 ± 0.021
38 | TGGATAATCAAAAATTGTACAAGTGTTGTTATTGGT [XGTACX_site8010] | 7.93 ± 0.45
39 | ACCGGTGGAACGTTTTGTACATATATAATAATATAT [XGTACX_site2143] | 7.75 ± 0.5
40 | CTTGGGAAGTATTCAGTGCAAAATATAAGCAGGTCA [GTGCAC_site9758] | 10.5 ± 0.11
41 | AAAAGAAATAAGGATACACACTATTGATAAAAGTAG [CACACA_site4309] | 7.92 ± 0.59
42 | TATTACAAATAATACCGTACACAAATGTTTTTTTAT [XGTACX_site7977] | 7.7 ± 0.52
43 | TCGTGGGAAAATATTACACACATTTACTATAGTATC [CACACA_site5836] | 8.05 ± 0.6
44 | TATATATTAATCAAAGTGCAATAATAAAATAAAAGT [GTGCAC_site9490] | 10.8 ± 0.34
45 | CTCTAATTAATATTTGTACACACATATTTAACCTAC [CACACA_site9043] | 8.06 ± 0.46
